This is one part of the list. These are further read-outs of the screen, such as a control signal, another cell line or another target. No call is given for them.
Key:
Experiment in all cases: Primary Screen for Target Class Profiling of Small Molecule Inhibitors of Methyltransferases
[1] = molecular target: Glycine N-methyltransferase (Homo sapiens) (UniProt Q14749); settings: purified enzyme, MTase-Glo SAH luminescence; measured here: GNMT inhibition; at 40 µM; stronger effect = lower value
In short: (§1)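 Each enzyme was assayed with SAM and its substrate. SAH formation detected by MTase-Glo luminescence; single-point 40 uM screen[…].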

[2] = molecular target: Guanidinoacetate N-methyltransferase (Homo sapiens) (UniProt Q14353); settings: purified enzyme, MTase-Glo SAH luminescence; measured here: GAMT inhibition; at 40 µM; stronger effect = lower value
In short: as §1

[3] = molecular target: Histamine N-methyltransferase (Homo sapiens) (UniProt P50135); settings: purified enzyme, MTase-Glo SAH luminescence; measured here: HNMT inhibition; at 40 µM; stronger effect = lower value
In short: as §1

[4] = molecular target: Nicotinamide N-methyltransferase (Homo sapiens) (UniProt P40261); settings: purified enzyme, MTase-Glo SAH luminescence; measured here: NNMT inhibition; at 40 µM; stronger effect = lower value
In short: as §1

[5] = molecular target: Phenylethanolamine N-methyltransferase (Homo sapiens) (UniProt P11086); settings: purified enzyme, MTase-Glo SAH luminescence; measured here: PNMT inhibition; at 40 µM; stronger effect = lower value
In short: as §1
On the % scale 0 is the no-effect control and ±100 the full control effect.

Row | SMILES | activity change, negative = inhibition [1] | activity change, negative = inhibition [2] | activity change, negative = inhibition [3] | activity change, negative = inhibition [4] | activity change, negative = inhibition [5]
1 | CC1(C(=O)NC2CCCC2)Cn2c(cc3ccccc32)C(=O)N1Cc1ccc(F)cc1 (stereo not given) | -5.1% | 5.03% | -2.16% | -6.44% | -1.39%
2 | CC1(C(=O)O)CCCC2(C)C1CCC13CC(CCC21)C1(CO)OC31 (stereo not given) | -1.43% | -3.54% | -47.7% | -15.8% | -1.4%
3 | COc1ccc(OC)c(CN2C(=O)c3ccc(-c4ccco4)n3CC2(C)C(=O)NC2CCCCC2)c1 (stereo not given) | -1.78% | 0% | -1.52% | 2.88% | 0.057%
4 | COc1ccc2c(c1)c(-n1cccc1)c1n2CC(C)(C(=O)NC2CCCCCC2)N(Cc2ccc(C)cc2)C1=O (stereo not given) | -1.96% | 0% | 3.17% | -0.073% | -0.759%
5 | CC(C)(CNC(=O)c1cccc(-c2noc(C(F)(F)F)n2)c1)c1coc(-c2ccccc2)n1 | -3.79% | -5.84% | 9.99% | -24.2% | -7.04%
6 | CC(C)OCCCNC(=O)CCc1nnc2n(Cc3ccc(Cl)cc3)c(=O)c3ccccc3n12 | -2.83% | 2.25% | 2.62% | 2.89% | -0.805%
7 | CCCC1c2cccn2CCN1C(=O)Nc1ccc(OCC)cc1 (stereo not given) | 1.59% | 1.78% | -2.35% | 5.14% | 9.46%
8 | CCOc1cccc(CNC(=O)c2nnn3c2COC(c2ccc(C)cc2)C3)c1 (stereo not given) | -6.6% | -4.66% | -4.67% | -5.02% | -4.09%
9 | c1ccc(Cn2cc(CN3CCN(c4ccncc4)CC3)c(-c3cc4ccccc4o3)n2)cc1 | -11% | 1.25% | -56.3% | -15.8% | 6.04%
10 | COCCc1noc(C2Cc3ccccc3N2C(=O)Nc2ccc3c(c2)OCCO3)n1 (stereo not given) | -6.51% | -6.14% | -2.67% | -7.83% | -6.92%
11 | Fc1cccc(-c2nnn3c2nc(NCc2ccc4c(c2)OCO4)c2cc(Cl)ccc23)c1 | -2.31% | 4.96% | -0.338% | -1.97% | -0.844%
12 | Cn1nnc(-c2ccc(-c3ccc(N4C[C@H](COP(=O)(O)O)OC4=O)cc3F)cn2)n1 | -20.4% | 7.01% | -1.24% | -15.2% | -8%
13 | COCCNC(=O)C[C@@H]1C[C@H]2O[C@H](CNCc3cccnc3OC)[C@@H](O)[C@H]2O1 | -5.89% | -12.3% | -3.5% | -12.6% | -12.2%
14 | CC1CCCC(NC(=O)C2(C)Cn3c(nc4ccccc43)C(=O)N2Cc2cccs2)C1C (stereo not given) | 4.16% | 3.64% | 7.85% | 3% | 3.31%
15 | Cc1ccccc1NC(=O)Nc1ccc(CN2C(=O)N([C@@H](CC(C)C)C(=O)N[C@@H](CC(=O)O)c3ccccc3)C(=O)C2(C)C)cc1 | 0.128% | 5.38% | 1.66% | -12.2% | -2.31%
16 | N#CCn1ccn2nc3c(c2c1=O)CCCC3 | -10% | -9.43% | -5.64% | -17.2% | 4.42%
17 | Cc1ccc(CNC(=O)CCn2ccc3cc(S(=O)(=O)N4CCCC4)ccc32)cc1 | -3.14% | 2.74% | 1.59% | -8.2% | -1.04%
18 | Cc1ccc(NC(=O)N2CCn3cccc3C2C(C)C)cc1F (stereo not given) | 6.87% | 0.366% | 3.14% | 0.75% | 5.38%
19 | COc1ccc(O[C@H]2COCCN(S(=O)(=O)c3ccc(OC)cc3)C2)cc1 | -9.22% | -7.25% | -3.16% | -11.5% | -5.27%
20 | CC(C)Cn1c(=O)c2ccc(C(=O)NC3CCCCC3)cc2n2c(=O)n(CC(N)=O)nc12 | 5.75% | 0% | 9.48% | -2.79% | 4.6%
21 | C=C1CC[C@@]2(OC1)O[C@H]1CC3C4CC=C5C[C@@H](O[C@@H]6O[C@@H](C)[C@H](O)[C@@H](O)[C@H]6O)C[C@@H](O[C@@H]6O[C@H](C)[C@H](O)[C@H](O)[C@H]6O[C@@H]6O[C@@H](C)[C@H](O)[C@@H](O)[C@H]6O)[C@]5(C)C4CC[C@]3(C)[C@H]1[C@@H]2C (stereo not given in full) | 0% | 16.2% | -0.922% | 5.44% | 9.29%
22 | CC1CCC(NC(=O)CCCc2nnc3n4nc(-c5ccccc5)nc4c4ccccc4n23)CC1 (stereo not given) | -0.794% | 0% | 6.34% | -1.62% | -2.59%
23 | N#Cc1ccc(C(=O)N2CCC(Cc3nc(-c4cccnc4)n[nH]3)C2)cc1 (stereo not given) | -4.73% | -0.24% | -1.74% | -12.1% | -1.1%
24 | COc1ccc(CNC(=O)CCc2nnc3n(Cc4ccc(Cl)cc4)c(=O)c4ccccc4n23)cc1 | -5.1% | 0% | 8.85% | 8% | 0.513%
25 | Cn1ccnc1-c1ccc(N2CC[C@@]3(O)CCN(S(C)(=O)=O)C[C@H]3C2)nn1 | -1.26% | -4.3% | -3.19% | -9.68% | -10.1%
26 | CCC(C)C(N)C(=O)NCCN1CCOCC1 (stereo not given) | -4.44% | -6.08% | 9.06% | -9.35% | 2.02%
27 | CC(C)Cn1c(=O)c2ccccc2n2c(SCC(=O)NC3CCCCC3)nnc12 | -5% | -8.18% | 5.14% | -7.18% | -6%
28 | COc1ccccc1CN1C(=O)c2ccc(-c3ccco3)n2CC1(C)C(=O)NC1CCC(C)CC1 (stereo not given) | 3.3% | 1.73% | 7.13% | 2.67% | 2.7%
